# The antibiotic and cytotoxicity screens of Wong et al. (2023)
# The other results are listed elsewhere or left out.
# Assays:
# [1] = tested on: HSkMC (human skeletal muscle cells); test: cytotoxicity call (relative viability < 0.9); conditions: 10 µM
# [2] = tested on: HepG2; test: cytotoxicity call (relative viability < 0.9); conditions: 10 µM
# [3] = tested on: S. aureus RN4220; test: growth inhibition call (relative growth <= 0.2); conditions: 50 µM
Compound,cytotoxicity call [1],cytotoxicity call [2],growth inhibition call [3]
O=C(O)C1C(=CCO)OC2CC(=O)N21.[LiH] (stereo not given),inactive,inactive,active
C[C@@H]1CCCCO[C@H](CN(C)Cc2ccc(C(=O)Nc3ccccc3N)cc2)[C@H](C)CN([C@@H](C)CO)C(=O)c2cc(N(C)C)ccc2O1,inactive,inactive,inactive
C=CCN1C[C@@H](C(=O)O)CCC1=O,inactive,inactive,inactive
COCC#Cc1cnc2c(c1)C(=O)N([C@@H](C)CO)C[C@H](C)[C@@H](CN(C)C(C)=O)O2,inactive,inactive,inactive
CN1CCN(C(=O)[C@@H]2[C@@H](C(=O)O)[C@H]3CC[C@H]2O3)CC1,inactive,inactive,inactive
COc1c(O[C@@H]2O[C@H](CO)[C@@H](O)[C@H](O)[C@H]2O)cc2c(c1OC)-c1ccc(SC)c(=O)cc1[C@@H](NC(C)=O)CC2,inactive,inactive,inactive
CO[C@@H]1CN(C)C(=O)c2ccc(NC(=O)Nc3ccc(F)cc3)cc2OC[C@@H](C)N(C(=O)c2ccc(F)cc2)C[C@H]1C,inactive,inactive,inactive
C[C@H](CO)N1C[C@H](C)[C@@H](CN(C)S(=O)(=O)c2cccs2)Oc2ccc(NC(=O)Nc3cccc4ccccc34)cc2C1=O,inactive,inactive,inactive
COc1ccc(S(=O)(=O)N(C)C[C@@H]2OCCCC[C@@H](C)Oc3ccc(NC(=O)Nc4ccccc4)cc3C(=O)N([C@H](C)CO)C[C@H]2C)cc1,inactive,inactive,inactive
C[C@@H]1CN([C@H](C)CO)S(=O)(=O)c2ccc(C#Cc3ccc(F)cc3)cc2O[C@H]1CN(C)S(C)(=O)=O,inactive,inactive,inactive
